The labels stand for the following.
B1: CPEB3 Ribozyme (parent)
chain: UAACAGGGGGCCACAGCAGAAGCGUUCACGUCGCAGCCCCUGUCAGAUUCUGGUGAAUCUGCGAAUUCUGCUGUAUAUCUC

Experimental findings from the RNAGym collection of RNA variant scans (doi:10.1093/nar/gkz1192) are described below.

The source gives no read counts; variants with many changes may rest on few reads.

This data set covers variants of B1. Nature of the data set: self-cleavage, relative activity (ratio to wild type); higher = more cleavage; in vitro, sequencing. An outline of the steps: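 For each CPEB3 ribozyme variant, relative activity is its cleaved/total read fraction divided by the unmutated ribozyme's. Barcoded error-prone PCR libraries were transcribed by T7 RNA polymerase (5 hours, 37°C) and held in DNase I for 15 min before an EDTA stop, with cleavage occurring throughout. Template-switching reverse transcription and Illumina sequencing were used to read the RNAs. A 5-read minimum applied, and results are the mean of three batches.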
Turning to UAACAGGGGGCCGCAGCAGAAGCGUCCACGUCGCAGCCUCUGUCAGGUUCUGGUGAAUCUGCGAAUUCUGCUGUAUAUCUC [A13G U26C C39U A47G], the self-cleavage came to 0.16.
Turning to UAACAGGGGGCCGCAGCAGAAGCGAUCACGUCGCAGCCCCUGUCAGAUUCUGGCGAAUCUGCGAAUUCUGCUGCAUAUCUC [A13G U25A U54C U74C], the self-cleavage came to 0.1.
Consider UAACAGGGGGCCGCAGCAGAAGCGUCCACGUCGCAGCCCUUGUCAGAUUCUGGUGAAUCUGCGAGUUGUGCUGUAUAUCUC [A13G U26C C40U A65G C68G], for which the self-cleavage was 0.08.
As for UAACAGGGGGCCGCAGCAGAAGCCUUCACGUCGCAGCCCCUGCCAGAUUCUGGUGAAUCUGCGAGUUCUGUUGUAUAUCUC [A13G G24C U43C A65G C71U], the self-cleavage amounted to 0.16.
Next, UAACAGGGGGCCGCAGCAGAAGCGUUCACGUCACAGCCCCUGUCAGAUUCUGGUGAAUCUGCGGAUUCUGCUGUAUAUCUC [A13G G33A A64G]: 0.08.
Turning to UAACAGGGGGCCGCAGCAGAAGCGCUCACGUCGCAGCCCCUGUCAGAUCCUGGCGAAUCUGCGAACUCUGCCGUAUAUCAC [A13G U25C U49C U54C U66C U72C U80A], the self-cleavage is 0.
UAACAGGGGGCCGCAGCAGAAGCGUUCACGUCGCAGCCCCAGUCGGAUACUGGUGAAUCUGCGAAUUCUGCUGUAUAUCUC [A13G U41A A45G U49A]: the self-cleavage was 0.26.
On to UAACAGGGGGCCGCAGCAGAAGCGCUCACGUCGCAGCCCCUGUCGGACUCUGGUGAAUCUGCGAAUUCUGCUUUAUACCUC [A13G U25C A45G U48C G73U U78C], for which the self-cleavage was determined as 0.31.
In the case of UAACAGGGGGCCGCAGCAGAAGCGCUCACGUCGCAGCCCCUGCCAGAUUCUGGUGAAUCUGCGAAAUCUGCUGUAUACCUC [A13G U25C U43C U66A U78C] it was 0.09; in that of UAACAGGGGGCCGCAGCAGAAGCGUUCACGGCGCAGCCCCUGUCAGAUUCAGGCGAAUCUGCGAAUUCUGCUGUAUAUCUC [A13G U31G U51A U54C], 0.57; in that of UAACAGGGGGCCGCAGCAGAAGCGUUCACAUCGCAGCCCCUGUCAGAUUCUGGUGUAUCUGCGAAUUCUGCUGUAUAUCCC [A13G G30A A56U U80C], 0.19.
Consider UAACAGGGGGCCGCAGCAGAAGCGUCCACGUCGCAGCCCCCGUCAGAUUCUGGUGAAUCCGCGAAUUCUGCUGUAUAUCUC [A13G U26C U41C U60C], for which the self-cleavage stood at 0.33.
Take UAACAGGGGGCCGCAGCAGAAGCGUCCACGUCGCAGCCCCUGUCGGAUUCUGGUGAAUCCGCGGAUUCUGCCGUAUAUCUC [A13G U26C A45G U60C A64G U72C]: the self-cleavage turned out to be 0.26.
In the case of UAACAGGGGGCCGCAGCAGAAGCGUUCACGGCGCGGCCCCAGUCAGAUUCUGGUGAGUCUGCGAAUUCUGCUGUAUAUCUC [A13G U31G A35G U41A A57G] it was 0.41.
Next, UAACAGGGGGCCGCAGCAGAAGCGUCCACGUCGCAGCCCCAGUCAGAUUCUGGUGAAUCUGCGAAUUCUGCUGUAUAACUC [A13G U26C U41A U78A]: 0.36; UAACAGGGGGCCGCAGCAGAAGCGCUCACGUCGCAGCCCCUGUCGGAUUCUUGUGAAUCUACGAAUUCUGCUGUAUAUCUC [A13G U25C A45G G52U G61A]: 0.13; UAACAGGGGGCCGCAGCAGAAGCGUUCACGUCGCAGCCCCUAGCAAAUUCUGGUGAAUCUGCGAAUUCUGCUGUAUAUCUC [A13G G42A U43G G46A]: 0.07.
Next, UAACAGGGGGCCGCAGCAGAAGCGUUCACGUCGCAGCCCCUGUCAGAUUCUGGUGAAUCUGCAAAUUCUACCGUAUAUCUC [A13G G63A G70A U72C]: 0.06; UAACAGGGGGCCGCAGCAGAAGCGUUCACGUCCCAGCCCCUGUCAGAUUCUGGUGAAUCUGCGAAUUCUGCUGUAUAACUC [A13G G33C U78A]: 0.06.
Consider UAACAGGGGGCCGCAGCAGAAGCGUUCACGUCGCAGCCCCUGCCAGAUUCGGGUGAAUCUGCGAAUUCUGCUGUAUAUCUC [A13G U43C U51G], for which the self-cleavage is 0.28.
Next, UAACAGGGGGCCGCAGCAGAAGCGUUCACGUCGCAGCCCCAGUCAGAUUCUGGUCAAUCUGCGAAUUCUGCUGUAUAUCUC [A13G U41A G55C]: 0.26.
Take UAACAGGGGGCCGCAGCAGAAGCGUUCACGCCGCAGCCCCUGUCAGAUUCUGGUGAAUAUGCGAAUUCUGCCGUAUAUCUC [A13G U31C C59A U72C]: the self-cleavage came to 0.17.
Next, UAACAGGGGGCCGCAGCAGAAGCGUCCACGUCGCAGCCCCUGUCAGAUUCUGGUGAAUCUGCGAAGUCUGCUGUAUAUCUC [A13G U26C U66G]: 0.18.
On to UAACAGGGGGCCGCAGCAGAAGCGUUCACGUCGCAGCCCCUGUCAGAUUCUGGUGAAUCUCCGUAUUCUGCUGUAUAUCUC [A13G G61C A64U], for which the self-cleavage stood at 0.11.
In the case of UAACAGGGGGCCGCAGCAGAAGCGUUCACGUCGCAGCCCCUGACAGAUUCUGGUGAGUCUGCGAGUUCUGCUGUAUAUCUC [A13G U43A A57G A65G] it was 0.28.
For the variant UAACAGGGGGCCGCAGCAGAAGCGUUCACGUCGCAGCCCCCGUCAGAUUCUGGUGAAUCUGCGAGUUCUGCCGUAUAUCUC [A13G U41C A65G U72C], the self-cleavage is 0.19.
Consider UAACAGGGGGCCGCAGCAGAAGCGUUCACGUCGCAGCCCCUGCCAGAUUCUGGUGAAUCAGCGAAUUCUGCUGUAUAUCUC [A13G U43C U60A], for which the self-cleavage stood at 0.07.
For the variant UAACAGGGGGCCGCAGCAGAAGCGUUCACGUCGCAGCCCCCGUCAGAUUCUGGAGAAUCUGCGAAUUCUGCUGUAUAUCUC [A13G U41C U54A], the self-cleavage turned out to be 0.94.
For the variant UAACAGGGGGCCGCAGCAGAAGCGCUCACGUCGCAGCCCCCGUCAGAUUCUGGUGAAUCUGCGAAUUCUGCUGUUUAUCUC [A13G U25C U41C A75U], the self-cleavage was found to be 0.08.
Take UAACAGGGGGCCGCAGCAGAAGCGUCCACGUCUCAGCCCCUGUCAGACUCUGGUGAAUCUGCGAAUUCUGCUGUAUAUCUC [A13G U26C G33U U48C]: the self-cleavage is 0.07.
UAACAGGGGGCCGCAGCAGAAGCGUACACGUCGCAGCCCCUGUCAGAUUCUGGCGAAUCUGCGAAUUCUGCUGUAUAUCUC [A13G U26A U54C]: the self-cleavage was 0.8.
With UAACAGGGGGCCGCAGCAGAAGCGCUCGCGUCGCUGCCCCCGUCAGAUUCUGGUGAAUCGGCGAAUUCUGCUGUAUAUUUC [A13G U25C A28G A35U U41C U60G C79U], the self-cleavage turned out to be 0.
Next, UAACAGGGGGCCGCAGCAGAAGCGUCCACGUCGCAGCUCCUGUCAGAUCCUGGUGAACCUGCGAAUUCUGCUGUAUAUCCC [A13G U26C C38U U49C U58C U80C]: 0.05; UAACAGGGGGCCGCAGCAGAAGCGCUCACGUCGCAGCCCCUGUCAGAUUCUGGUGAAUCUGCGAUUUCUACUGUAUGCCUC [A13G U25C A65U G70A A77G U78C]: 0.06.
